Source: PubChem BioAssay (NCI)
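Cultured in 96-well plates, cells were exposed to test compound for 48 hours across five concentrations. Here, GI50 denotes the concentration required for 50% inhibition of growth.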 Certain results were filed several times, with different values. This list holds those alone. The source may hold further records. Records of one sample usually come from different ranges of test concentrations, not given here; a value can be the end of its range.

Test system: MDA-MB-468 breast
Assay: NCI anticancer screen, dose series, 48 h

With `CC[C@H](C)[C@H](NC(=O)[C@H]1CCCCN1C)C(=O)N(C)[C@H](C[C@@H](OC(C)=O)c1nc(C(=O)N[C@@H](Cc2ccccc2)C[C@H](C)C(=O)OC)cs1)C(C)C` the GI50 was 0.238 nM and 2.5 nM.
